# The supplement of paper PMC8728848
# The other results are listed elsewhere or left out.
# B1: PX14343A-bvu-539-29-539 (Bacteroides vulgatus) (protein)
# chain: DSLTESSSNTFWQTPDDALMALASCYDALQSNQLYNSDQYSLGPLYMDCISDNGGHFNWSGWMEGYDMAMGIHTPSSSIIGSYWKDCYEVISRCNVLIANIDRVDMDASQKAIYQAEAKTIRALMYINLTMTYQDVPFLTAPLTIDEAECEKTDRAAIVAHVMTDLQDAAEVLPQNASSRGHITKGAALSLLGRVALYNEKWDDAIAAYKQVQGLGYSLDPSYAKLFTQSGETSPEIIFAVRYEGPGMSEGAAFNAHWNTPLEAMNGTIDLADAYYCKDGKPTTDTKIAELNGGGGLDVSKPNPAHFENRDPRLYSTLFVPGMLWNGKGGIDTSASNPYANVYGGAAASLSTVYVYKYFDPTDTSNSWDNGQDFYVVRYAEVLLSLAEAMVQKGGYVYSDVTALVNEVRQRADVNMPTVEEVEGTSLSKDELLEVIKHERRVELAFEGLRLFDLYRWKELDKAVANIENERTMYGLAYEARKFNGERDYVWPLPTAELDTNKKLVQHDLWK
# How the values were obtained:
# Assay in all cases: glycan array binding signal (z-score within array); higher = stronger binding
# Details in all cases: glycan notation: IUPAC condensed, linker removed
# [1] = target: Fuc(a1-2)Gal(b1-4)GlcNAc(b1-3)Gal(b1-4)GlcNAc(b1-3)Gal(b1-4)GlcNAc
# How it was run: (§1)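 From the Consortium for Functional Glycomics database, 3228 arrays were curated, keeping only those whose protein sequence was available. Binding is given as a within-array Z-score averaged across arrays sharing a protein sequence and across linkers. Negative Z-scores can be read as non-binding.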
# [2] = target: Fuc(a1-2)Gal(b1-4)GlcNAc(b1-3)GalNAc
# How it was run: as §1
# [3] = target: Fuc(a1-2)Gal(b1-4)GlcNAc(b1-3)[Fuc(a1-2)Gal(b1-4)GlcNAc(b1-6)]GalNAc
# How it was run: as §1
# [4] = target: Fuc(a1-2)Gal(b1-4)GlcNAc(b1-3)[Fuc(a1-3)[Gal(b1-4)]GlcNAc(b1-6)]Gal(b1-4)Glc
# How it was run: as §1
# [5] = target: Fuc(a1-2)Gal(b1-4)GlcNAc(b1-6)GalNAc
# How it was run: as §1
# [6] = target: Fuc(a1-2)Gal(b1-4)GlcNAc6S
# How it was run: as §1
# [7] = target: Fuc(a1-2)Gal(b1-4)[Fuc(a1-3)]GlcNAc
# How it was run: as §1
# [8] = target: Fuc(a1-2)Gal(b1-4)[Fuc(a1-3)]GlcNAc(b1-2)Man(a1-3)[Fuc(a1-2)Gal(b1-4)[Fuc(a1-3)]GlcNAc(b1-2)Man(a1-6)]Man(b1-4)GlcNAc(b1-4)[Fuc(a1-6)]GlcNAc
# How it was run: as §1
# [9] = target: Fuc(a1-2)Gal(b1-4)[Fuc(a1-3)]GlcNAc(b1-2)[Fuc(a1-2)Gal(b1-4)[Fuc(a1-3)]GlcNAc(b1-4)]Man(a1-3)[Fuc(a1-2)Gal(b1-4)[Fuc(a1-3)]GlcNAc(b1-2)Man(a1-6)]Man(b1-4)GlcNAc(b1-4)GlcNAc
# How it was run: as §1
# [10] = target: Fuc(a1-2)Gal(b1-4)[Fuc(a1-3)]GlcNAc(b1-3)Gal(b1-4)[Fuc(a1-3)]GlcNAc
# How it was run: as §1
# [11] = target: Fuc(a1-2)Gal(b1-4)[Fuc(a1-3)]GlcNAc(b1-3)Gal(b1-4)[Fuc(a1-3)]GlcNAc(b1-3)Gal(b1-4)[Fuc(a1-3)]GlcNAc
# How it was run: as §1
# [12] = target: Fuc(a1-2)Gal(b1-4)[Fuc(a1-3)]GlcNAc(b1-3)GalNAc
# How it was run: as §1
# [13] = target: Fuc(a1-2)Gal(b1-4)[Fuc(a1-3)]GlcNAc(b1-3)[Neu5Ac(a2-6)Gal(b1-4)GlcNAc(b1-6)]Gal(b1-4)Glc
# How it was run: as §1
# [14] = target: Fuc(a1-2)Gal3S(b1-4)GlcNAc
# How it was run: as §1
# [15] = target: Fuc(a1-2)Gal6S(b1-3)GlcNAc
# How it was run: as §1
# [16] = target: Fuc(a1-2)Gal6S(b1-3)GlcNAc6S
# How it was run: as §1
# Fuc(a1-2)Gal6S(b1-4)Glc = target: Fuc(a1-2)Gal6S(b1-4)Glc
# How it was run: as §1
# [17] = target: Fuc(a1-2)Gal6S(b1-4)Glc6S
# How it was run: as §1
# Fuc(a1-2)[Gal(a1-3)]Gal = target: Fuc(a1-2)[Gal(a1-3)]Gal
# How it was run: as §1
# [18] = target: Fuc(a1-2)[Gal(a1-3)]Gal(b1-3)GalNAc
# How it was run: as §1
# [19] = target: Fuc(a1-2)[Gal(a1-3)]Gal(b1-3)GalNAc(b1-3)Gal(a1-4)Gal(b1-4)Glc
# How it was run: as §1
# [20] = target: Fuc(a1-2)[Gal(a1-3)]Gal(b1-3)GlcNAc
# How it was run: as §1
# [21] = target: Fuc(a1-2)[Gal(a1-3)]Gal(b1-3)GlcNAc(b1-2)Man(a1-3)[Fuc(a1-2)[Gal(a1-3)]Gal(b1-3)GlcNAc(b1-2)Man(a1-6)]Man(b1-4)GlcNAc(b1-4)GlcNAc
# How it was run: as §1
# [22] = target: Fuc(a1-2)[Gal(a1-3)]Gal(b1-3)GlcNAc(b1-2)Man(a1-3)[Fuc(a1-2)[Gal(a1-3)]Gal(b1-3)GlcNAc(b1-2)Man(a1-6)]Man(b1-4)GlcNAc(b1-4)[Fuc(a1-6)]GlcNAc
# How it was run: as §1
# [23] = target: Fuc(a1-2)[Gal(a1-3)]Gal(b1-3)GlcNAc(b1-3)GalNAc
# How it was run: as §1
# [24] = target: Fuc(a1-2)[Gal(a1-3)]Gal(b1-3)GlcNAc(b1-6)GalNAc
# How it was run: as §1
# [25] = target: Fuc(a1-2)[Gal(a1-3)]Gal(b1-4)Glc
# How it was run: as §1
# [26] = target: Fuc(a1-2)[Gal(a1-3)]Gal(b1-4)GlcNAc
# How it was run: as §1
# [27] = target: Fuc(a1-2)[Gal(a1-3)]Gal(b1-4)GlcNAc(b1-2)Man
# How it was run: as §1
# [28] = target: Fuc(a1-2)[Gal(a1-3)]Gal(b1-4)GlcNAc(b1-2)Man(a1-3)[Fuc(a1-2)[Gal(a1-3)]Gal(b1-4)GlcNAc(b1-2)Man(a1-6)]Man(b1-4)GlcNAc(b1-4)GlcNAc
# How it was run: as §1
# [29] = target: Fuc(a1-2)[Gal(a1-3)]Gal(b1-4)GlcNAc(b1-2)Man(a1-3)[Fuc(a1-2)[Gal(a1-3)]Gal(b1-4)GlcNAc(b1-2)Man(a1-6)]Man(b1-4)GlcNAc(b1-4)[Fuc(a1-6)]GlcNAc
# How it was run: as §1
# [30] = target: Fuc(a1-2)[Gal(a1-3)]Gal(b1-4)GlcNAc(b1-3)GalNAc
# How it was run: as §1
# [31] = target: Fuc(a1-2)[Gal(a1-3)]Gal(b1-4)GlcNAc(b1-3)[Fuc(a1-2)[Gal(a1-3)]Gal(b1-4)GlcNAc(b1-6)]GalNAc
# How it was run: as §1
# [32] = target: Fuc(a1-2)[Gal(a1-3)]Gal(b1-4)GlcNAc(b1-6)GalNAc
# How it was run: as §1
# [33] = target: Fuc(a1-2)[Gal(a1-3)]Gal(b1-4)[Fuc(a1-3)]Glc
# How it was run: as §1
# [34] = target: Fuc(a1-2)[Gal(a1-3)]Gal(b1-4)[Fuc(a1-3)]GlcNAc
# How it was run: as §1
# [35] = target: Fuc(a1-2)[Gal(a1-3)]Gal(b1-4)[Fuc(a1-3)]GlcNAc(b1-3)GalNAc
# How it was run: as §1
# [36] = target: Fuc(a1-2)[Gal(a1-4)]Gal(b1-4)GlcNAc
# How it was run: as §1
# [37] = target: Fuc(a1-2)[GalNAc(a1-3)]Gal
# How it was run: as §1
# [38] = target: Fuc(a1-2)[GalNAc(a1-3)]Gal(b1-3)GalNAc(a1-3)[Fuc(a1-2)]Gal(b1-4)GlcNAc
# How it was run: as §1
# [39] = target: Fuc(a1-2)[GalNAc(a1-3)]Gal(b1-3)GalNAc(b1-3)Gal(a1-4)Gal(b1-4)Glc
# How it was run: as §1
# [40] = target: Fuc(a1-2)[GalNAc(a1-3)]Gal(b1-3)GlcNAc
# How it was run: as §1
# [41] = target: Fuc(a1-2)[GalNAc(a1-3)]Gal(b1-3)GlcNAc(b1-2)Man(a1-3)[Fuc(a1-2)[GalNAc(a1-3)]Gal(b1-3)GlcNAc(b1-2)Man(a1-6)]Man(b1-4)GlcNAc(b1-4)GlcNAc
# How it was run: as §1
# [42] = target: Fuc(a1-2)[GalNAc(a1-3)]Gal(b1-3)GlcNAc(b1-2)Man(a1-3)[Fuc(a1-2)[GalNAc(a1-3)]Gal(b1-3)GlcNAc(b1-2)Man(a1-6)]Man(b1-4)GlcNAc(b1-4)[Fuc(a1-6)]GlcNAc
# How it was run: as §1
# [43] = target: Fuc(a1-2)[GalNAc(a1-3)]Gal(b1-3)GlcNAc(b1-3)GalNAc
# How it was run: as §1
binder,measurement,setting,value
B1,glycan array binding signal (z-score),[1],-0.245
same,glycan array binding signal (z-score),[2],-0.218
same,glycan array binding signal (z-score),[3],-0.346
same,glycan array binding signal (z-score),[4],-0.423
same,glycan array binding signal (z-score),[5],0.015
same,glycan array binding signal (z-score),[6],-0.179
same,glycan array binding signal (z-score),[7],-0.151
same,glycan array binding signal (z-score),[8],1.44
same,glycan array binding signal (z-score),[9],-0.059
same,glycan array binding signal (z-score),[10],-0.083
same,glycan array binding signal (z-score),[11],-0.123
same,glycan array binding signal (z-score),[12],-0.384
same,glycan array binding signal (z-score),[13],-0.373
same,glycan array binding signal (z-score),[14],-0.406
same,glycan array binding signal (z-score),[15],-0.303
same,glycan array binding signal (z-score),[16],0.019
same,glycan array binding signal (z-score),Fuc(a1-2)Gal6S(b1-4)Glc,-0.085
same,glycan array binding signal (z-score),[17],-0.262
same,glycan array binding signal (z-score),Fuc(a1-2)[Gal(a1-3)]Gal,0.03
same,glycan array binding signal (z-score),[18],0.142
same,glycan array binding signal (z-score),[19],-0.301
same,glycan array binding signal (z-score),[20],-0.2
same,glycan array binding signal (z-score),[21],2.54
same,glycan array binding signal (z-score),[22],-0.279
same,glycan array binding signal (z-score),[23],-0.271
same,glycan array binding signal (z-score),[24],-0.27
same,glycan array binding signal (z-score),[25],-0.467
same,glycan array binding signal (z-score),[26],-0.517
same,glycan array binding signal (z-score),[27],-0.401
same,glycan array binding signal (z-score),[28],0.05
same,glycan array binding signal (z-score),[29],0.314
same,glycan array binding signal (z-score),[30],0.003
same,glycan array binding signal (z-score),[31],7.49
same,glycan array binding signal (z-score),[32],-0.17
same,glycan array binding signal (z-score),[33],-0.243
same,glycan array binding signal (z-score),[34],0.751
same,glycan array binding signal (z-score),[35],0.281
same,glycan array binding signal (z-score),[36],0.386
same,glycan array binding signal (z-score),[37],-0.253
same,glycan array binding signal (z-score),[38],0.132
same,glycan array binding signal (z-score),[39],-0.256
same,glycan array binding signal (z-score),[40],-0.267
same,glycan array binding signal (z-score),[41],-0.46
same,glycan array binding signal (z-score),[42],-0.3
same,glycan array binding signal (z-score),[43],-0.347
